# From the supplement of paper PMC4166925
# ± gives the standard deviation of the averaged measurements. Over roughly 33,000 sequences, “E-score (dimensionless, -0.5 to 0.5)” has its median near -0.049; the highest 2% begin near 0.37. The list shows a part of the results.
# Tested on: T1, PmTbr T-box DNA-binding domain (GST fusion)
# T1 sequence: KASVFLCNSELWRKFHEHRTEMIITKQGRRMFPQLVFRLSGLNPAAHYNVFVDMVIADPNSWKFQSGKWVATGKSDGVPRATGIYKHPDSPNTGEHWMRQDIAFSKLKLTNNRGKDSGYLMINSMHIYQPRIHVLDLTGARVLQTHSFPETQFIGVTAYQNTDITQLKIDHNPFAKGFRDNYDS
# Test: PBM E-score of 8-mer (E-score (dimensionless, -0.5 to 0.5)); Tbr is Tbrain of the sea star Patiria miniata (Pm) or the sea urchin Strongylocentrotus purpuratus (Sp); higher = stronger binding preference; most listed sequences are background and not binding sites
# Conditions: the construct has about 5 more residues each side
# Outline: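 Expression of GST-fused Tbr T-box DNA-binding domains, each holding the full T-box plus roughly five flanking residues, was carried out in BL21 E. coli at 20 °C, with purification by glutathione affinity chromatography. Universal Agilent arrays made double-stranded by primer extension were incubated with the protein at 200 nM in PBS (pH 7.5), then scanned and quantified. All ungapped 8-mers were scored from probe intensities, and each received an enrichment E-score from the Universal PBM Analysis Suite, averaged over duplicate arrays.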
row,Sequence,PBM E-score of 8-mer
1,GGGCGACC,-0.168 ± 0.012
2,AAATACAC,0.13 ± 0.046
3,CAACTGCA,-0.0781 ± 0.015
4,AGCGCCCC,0.187 ± 0.059
5,CTTTGTTA,0.0892 ± 0.016
6,CACGCTCG,0.172 ± 0.081
7,AGTGCAAA,0.311 ± 0.036
8,ACCCGTCA,0.301 ± 0.029
9,ATTATGAC,-0.0738 ± 0.063
10,CGGGACCC,-0.3 ± 0.025
11,CTTGAGGA,-0.272 ± 0.012
12,AATGGGAC,-0.0258 ± 0.0075
13,CACGATCG,0.155 ± 0.0039
14,GTGAGCAC,0.101 ± 0.017
15,CAGGTGCA,0.277 ± 0.021
16,CAAATCGG,0.0385 ± 0.026
17,CAACATAA,-0.0105 ± 0.069
18,AGTGGGTG,0.251 ± 0.029
19,AACCCTGG,0.0108 ± 0.035
20,CTTTTTGA,0.247 ± 0.065
21,CCTTGACA,0.27 ± 0.0047
22,ACTTAGCC,-0.0115 ± 0.035
23,CGCTGTTA,0.0368 ± 0.0067
24,AATGTGTG,0.408 ± 0.014
25,ACATATCT,-0.00342 ± 0.022

row,Sequence,PBM E-score of 8-mer
1,GTGTCGAA,0.38248 ± 9.9e-05
2,CCACCACA,0.117 ± 0.02
3,AACAAAGG,-0.099 ± 0.002
4,CCGACTTA,0.0179 ± 0.14
5,AGCAGGAG,-0.0716 ± 0.065
6,AGAGTCAG,-0.379 ± 0.042
7,ATTGTGTA,0.0104 ± 0.054
8,AACCTAAA,-0.034 ± 0.094
9,AGATGATA,-0.0267 ± 0.12
10,CACACTTC,0.445 ± 0.005
11,CCCGTCAA,0.192 ± 0.0077
12,CATTGCCG,0.0765 ± 0.039
13,AGTAGACA,0.00012 ± 0.051
14,GAAGCCAC,-0.0904 ± 0.026
15,AAACAGCT,0.117 ± 0.05
16,GAAGCAGA,-0.105 ± 0.043
17,GATGAATA,-0.116 ± 0.016
18,AGGTACGA,0.0181 ± 0.018
19,TAGAGCCA,0.0491 ± 0.0064
20,CATGAGTC,-0.0716 ± 0.022
21,AATGAATC,-0.277 ± 0.0033
22,CACTTCTG,0.3 ± 0.039
23,AGCTGCTA,0.202 ± 0.049
24,CACTAATC,0.155 ± 0.011
25,GCTACGAC,0.00882 ± 0.05

row,Sequence,PBM E-score of 8-mer
1,CATTTTTA,-0.0361 ± 0.089
2,CAGCGCGC,0.0127 ± 0.026
3,AACGACTC,-0.00826 ± 0.037
4,ACCGGCAG,0.0302 ± 0.0023
5,CTGGAAAC,-0.276 ± 0.079
6,GCTACACA,0.00256 ± 0.053
7,CTACATTC,-0.292 ± 0.08
8,GGAAAACC,-0.0445 ± 0.061
9,GCCCGTCA,-0.0107 ± 0.082
10,CTATTCCC,-0.194 ± 0.035
11,ATTGGGAA,-0.0968 ± 0.048
12,GACGTTCA,-0.114 ± 0.046
13,GCGGCCCA,-0.358 ± 0.054
14,TGCTTTAA,-0.0842 ± 0.071
15,AATCCTGA,-0.0518 ± 0.0094
16,CATGTTCA,0.0108 ± 0.035
17,CCCTTACA,0.0775 ± 0.053
18,CCGAGTGC,0.0175 ± 0.059
19,CACGAATC,0.044 ± 0.0014
20,CGTATACA,-0.137 ± 0.011
21,ATTAGTAA,-0.0931 ± 0.011
22,ATCGTTCG,0.15 ± 0.074
23,GAGCCCTA,-0.268 ± 0.037
24,GTTCTTGA,-0.19 ± 0.0029
25,CATCCATC,-0.182 ± 0.0099

row,Sequence,PBM E-score of 8-mer
1,GCGTCGAC,0.119 ± 0.024
2,TGCGGAAA,0.0593 ± 0.022
3,CACTAGAG,0.00874 ± 0.031
4,AGTCGCGG,0.0686 ± 0.037
5,ACGTTACA,-0.0906 ± 0.04
6,TCTCGAAA,0.0424 ± 0.034
7,CGGGCTAG,-0.208 ± 0.032
8,GGTGGAAC,-0.0137 ± 0.046
9,AACAGCGG,-0.0252 ± 0.0036
10,AGCTTTGC,0.0439 ± 0.036
11,AAGTCCCG,-0.0424 ± 0.069
12,AAATTGTC,0.137 ± 0.049
13,ACGAGAAA,-0.00374 ± 0.034
14,AAGTTAAT,-0.107 ± 0.036
15,ACATATCC,-0.0724 ± 0.065
16,ACTGTTCC,-0.0486 ± 0.031
17,GAGCCTCC,-0.253 ± 0.035
18,TAGATGCA,-0.281 ± 0.067
19,CCCTTCCA,-0.1 ± 0.073
20,GATTGAAC,-0.143 ± 0.015
21,ACGATATC,0.111 ± 0.0075
22,ACCCAACT,-0.0184 ± 0.071
23,AATTGTTA,0.173 ± 0.08
24,CAATAAAC,-0.0819 ± 0.1
25,AACCCCGC,0.1313 ± 0.0012

row,Sequence,PBM E-score of 8-mer
1,AATGCTCG,-0.114 ± 0.014
2,CAAAAACA,0.0289 ± 0.033
3,TACTCAAA,-0.0222 ± 0.072
4,CCGTGTTC,-0.0125 ± 0.027
5,CCAGCCTA,-0.0317 ± 0.035
6,ACCGATCA,-0.119 ± 0.12
7,ACTTTGCA,0.168 ± 0.015
8,ATTGGTAC,-0.0718 ± 0.029
9,TACATGCA,-0.278 ± 0.068
10,AACGAATC,-0.0499 ± 0.0029
11,AGTCCCAT,-0.282 ± 0.038
12,TCTGTCCA,-0.185 ± 0.028
13,GAACCCTA,-0.0769 ± 0.011
14,AGAGTTTC,-0.192 ± 0.11
15,CAGGAGTA,-0.236 ± 0.022
16,CGGATTTC,-0.0586 ± 0.028
17,AAATCTCG,-0.0345 ± 0.022
18,TCAGGGGA,-0.197 ± 0.022
19,CCCCGCAA,-0.0622 ± 0.043
20,CCACCTTC,0.31 ± 0.02
21,CAGTGAGG,-0.123 ± 0.082
22,GGTTCGAA,-0.0605 ± 0.056
23,CCTCTCAA,0.0677 ± 0.046
24,ACAAGCAG,-0.142 ± 0.057
25,CACTTGCG,0.376 ± 0.019

row,Sequence,PBM E-score of 8-mer
1,ATGTGCGC,0.138 ± 0.0009
2,AGGCGTAG,0.0703 ± 0.0097
3,CGCTCGGC,-0.148 ± 0.02
4,CCCGACCA,-0.0729 ± 0.075
5,CAGTGGAG,-0.068 ± 0.012
6,CGGCTTCA,-0.0682 ± 0.033
7,GTCCGCAC,0.246 ± 0.0062
8,CAATTGCA,0.123 ± 0.017
9,GATGAGCA,-0.0632 ± 0.0015
10,ACGGACGT,-0.113 ± 0.023
11,AATAGAAA,-0.0863 ± 0.06
12,CACAAAGC,0.0584 ± 0.0037
13,GTTGATTA,0.0482 ± 0.0031
14,CAGCACAA,-0.132 ± 0.02
15,ACGGGGCT,-0.0217 ± 0.036
16,CTAATCAG,-0.0291 ± 0.027
17,TATCTACA,-0.0338 ± 0.029
18,CCGCCATC,-0.0994 ± 0.028
19,GAGGTAAC,-0.107 ± 0.075
20,ACAAGAAC,-0.0713 ± 0.045
21,CGCGGCCA,-0.0302 ± 0.045
22,AGAACTTG,-0.0645 ± 0.0036
23,AATGGCTG,-0.207 ± 0.038
24,GTAGCTTA,-0.103 ± 0.0071
25,CATCCTCC,-0.172 ± 0.04

row,Sequence,PBM E-score of 8-mer
1,ATTACTCG,-0.0674 ± 0.0033
2,ATACTGTG,0.0781 ± 0.053
3,ATCATTAC,-0.136 ± 0.043
4,CAACCCTA,0.0976 ± 0.048
5,ATAGTCGC,0.167 ± 0.037
6,ATGTGAGA,0.429 ± 0.0081
7,CGTGGCTC,-0.141 ± 0.022
8,CCGCATTC,-0.019 ± 0.026
9,ACCACTCA,0.131 ± 0.049
10,CCTCGCCC,-0.0372 ± 0.055
11,AAGCCAGC,-0.236 ± 0.021
12,CCGGCCTA,-0.0303 ± 0.026
13,CTTCTATC,-0.198 ± 0.025
14,GCACATGC,0.159 ± 0.0039
15,GATTAGAC,-0.0447 ± 0.044
16,CCGGATTA,-0.087 ± 0.0022
17,AGCGGACC,-0.0833 ± 0.074
18,GGTGCTAC,0.434 ± 0.0055
19,ATACTCAC,0.0718 ± 0.091
20,CGTACATC,-0.116 ± 0.063
21,ATGAGGGG,-0.0806 ± 0.096
22,GAGTAAGC,-0.0647 ± 0.012
